Measurements: PubChem BioAssay AID588579 (National Center for Advancing Translational Sciences (NCATS), 2011)
“And” between values parts separate entries of the source, which are not always exact repeats. Identical values can stand only once. Hit rate of the full screen: of about 400,000 compounds, about 2,200 (0.55%) were called active. Inconclusive results, whose numbers are uncertain, are shown with a selection of clear calls. Calls come from the whole dose curve; as a rule, active = well fitted inhibition curve with a large enough effect; inconclusive = small, poorly fitted or top-dose-only effect, or another doubt; inactive = no such curve, though single readings can be large or run the other way. Where the call is inconclusive, the potency comes from a doubtful curve fit.

These molecules were tested against DNA polymerase kappa (Homo sapiens) (UniProt Q9UBT6) (assay: qHTS for Inhibitors of Polymerase Kappa). Conditions: purified Pol kappa, fluorescent DNA synthesis assay, 10 min; series mostly up to 107 µM.
Summary of the method: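 Here, compound and 10 nM enzyme are combined for 15 min at room temperature; adding 50 nM substrate (final) starts DNA synthesis, tracked by fluorescence at 0 and 10 min against buffer-only wells.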
% is set by controls: 0 for no effect and ±100 for the full control effect; potency is the fitted concentration of half-maximal effect; tags give direction and shape of the fitted curve.

Chain of UniProt Q9UBT6 (Q9UBT6 whole entry, looked up): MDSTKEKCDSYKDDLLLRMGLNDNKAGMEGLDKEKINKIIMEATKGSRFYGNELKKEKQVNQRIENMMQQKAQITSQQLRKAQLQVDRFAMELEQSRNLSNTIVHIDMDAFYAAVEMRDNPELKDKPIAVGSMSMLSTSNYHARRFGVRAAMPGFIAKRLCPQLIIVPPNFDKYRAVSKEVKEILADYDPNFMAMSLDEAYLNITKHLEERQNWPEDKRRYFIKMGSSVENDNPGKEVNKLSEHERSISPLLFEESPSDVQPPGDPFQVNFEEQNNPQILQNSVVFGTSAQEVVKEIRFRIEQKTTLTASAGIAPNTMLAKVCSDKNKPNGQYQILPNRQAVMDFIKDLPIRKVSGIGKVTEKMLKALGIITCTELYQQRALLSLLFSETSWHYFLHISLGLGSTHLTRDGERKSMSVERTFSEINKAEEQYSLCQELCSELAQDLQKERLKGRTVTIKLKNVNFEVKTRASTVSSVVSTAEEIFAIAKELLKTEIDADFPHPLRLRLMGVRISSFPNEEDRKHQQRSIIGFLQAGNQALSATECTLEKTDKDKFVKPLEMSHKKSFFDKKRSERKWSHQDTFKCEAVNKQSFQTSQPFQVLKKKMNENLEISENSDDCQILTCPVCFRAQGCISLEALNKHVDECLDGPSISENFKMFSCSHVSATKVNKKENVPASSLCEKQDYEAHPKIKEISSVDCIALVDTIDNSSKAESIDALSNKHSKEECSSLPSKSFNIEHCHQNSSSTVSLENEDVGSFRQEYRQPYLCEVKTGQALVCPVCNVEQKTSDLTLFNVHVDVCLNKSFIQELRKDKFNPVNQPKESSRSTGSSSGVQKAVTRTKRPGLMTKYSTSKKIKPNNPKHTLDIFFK

Structure (SMILES) | Potency | activity, negative = inhibition
CCOc1cc(/C=C2\C(=O)NC(=O)N(CCc3ccc(F)cc3)C2=O)ccc1O | inactive | 
COc1cc2c(cc1O)C[C@H]1NCCc3cc4c(c-2c31)OCO4 | inconclusive: 56.2 µM [inhibitor, partial curve, poor fit] | 
CCCCCCC(C)(C)c1ccc([C@@H]2C[C@H](O)CC[C@@H]2CCCO)c(O)c1 | inconclusive: 7.94 µM [inhibitor, partial curve, poor fit] | 
CC(C)CN(CC(C)C)c1ccc(C=C2C(=O)NC(=S)NC2=O)cc1[N+](=O)[O-] | inconclusive: 89.1 µM [inhibitor, partial curve, poor fit] | 
O[C@H]1[C@H](O)[C@@H](O)CN2CC[C@H](O)[C@H]12 | inconclusive: 39.8 µM [inhibitor, single point] | 
Cc1cc(/C=C2\C(=O)NC(=O)N(Cc3ccccc3Cl)C2=O)c(C)n1-c1ccc(C(=O)O)cc1 | active: 50.1 µM | 
C[C@]12CCC3C(CC[C@H]4C[C@@H](O)CC[C@]34C)C1CC[C@@H]2OC(=O)[C@H](N)CCCCN (some centres not stated) | inactive | 
O=c1[nH]c(=O)n(Cc2ccccc2Cl)c(O)c1/C=C1/C=CC=N1 | inconclusive: 89.1 µM [inhibitor, single point] | 
Cc1cc(/C=C2\C(=O)NC(=O)N(Cc3ccccc3)C2=O)c(C)n1-c1ccc(Cl)c(C(=O)O)c1 | active: 17.8 µM | 
Cc1cccc(N2C(=O)/C(=C/c3ccc(CN(CCC#N)S(C)(=O)=O)o3)C(=O)NC2=S)c1 | active: 22.4 µM | 
O=C1C=CC(=O)C(Cl)=C1 | active: 15.8 µM | 
Cn1cccc1/C=C1\C(=O)NC(=O)N(Cc2ccco2)C1=O | active: 22.4 µM | 
Oc1ccc2c3c1OC1C(O)CC[C@]4(O)C(C2)N(CC2CCC2)CC[C@]314 (some centres not stated) | inconclusive: 7.08 µM [inhibitor, single point] | 
COc1cc2cc(C(=O)N3CC(COS(C)(=O)=O)c4ccc(O)cc43)[nH]c2c(OC)c1OC (configuration not stated) | active: 10 µM | 
O=C1OC(c2ccc(O)c(S(=O)(=O)O)c2)(c2ccc(O)c(S(=O)(=O)O)c2)c2c(Br)c(Br)c(Br)c(Br)c21 | active: 28.2 µM | 
COc1ccc(OC)c(N2C(=O)CC(=O)NC2=O)c1 | inconclusive: 89.1 µM [inhibitor, partial curve, poor fit] | 
CC1(C)[C@H](C(=O)O[C@H](C#N)c2cccc(Oc3ccccc3)c2)[C@@H]1C=C(Br)Br | inactive | 
Cc1cccc(N2C(=O)/C(=C/c3ccc(N4CCN(C)CC4)o3)C(=O)NC2=S)c1C | inconclusive: 100 µM [inhibitor, single point] | 
CCC(=O)Nc1cc(C(=O)O)ccc1S(=O)(=O)c1ccc(C)cc1 | inconclusive: 89.1 µM [inhibitor, single point] | 
O=c1[nH]c(=O)n(Cc2ccco2)c(O)c1/C=N/N1CCCCC1 | active: 89.1 µM | 
C=C(C)C1CCC(C)=CC1c1c(O)cc(O)cc1CCCCC (configuration not stated) | inconclusive: 25.1 µM [inhibitor, partial curve, poor fit] | 

Structure (SMILES) | Potency | activity, negative = inhibition
CC(=O)O[C@H]1[C@H]2[C@@H](OC(=O)Cc3ccccc3)[C@@H](C)C[C@]2(OC(C)=O)C(=O)/C(C)=C/[C@@H]2[C@H](CC[C@@]13CO3)C2(C)C | inconclusive: 39.8 µM [inhibitor, partial curve, poor fit] | 
O=C(Cc1ccc(Cl)c(Cl)c1)N1CCCC[C@H]1CN1CCCC1 |  | inactive: -6.59% [at 19.4 µM]
CC(Oc1ccc(Br)cc1)C(=O)N(Cc1nc(-c2ccccc2)no1)C(C)C (configuration not stated) | inconclusive: 89.1 µM [inhibitor, partial curve, poor fit] | 
COC(=O)C1=C(C)N(Cc2ccco2)C(=O)/C1=C\c1ccc(N(C)C)cc1 | inconclusive: 35.5 µM [inhibitor, single point] | 
Cc1cc(C)cc(NC(=O)CCNC(=O)N2C[C@H]3C[C@@H](C2)c2cccc(=O)n2C3)c1 | inconclusive: 89.1 µM [inhibitor, single point] | 
O=C1C(I)=CC(=C(c2cc(I)c(O)c(I)c2)c2ccccc2C(=O)O)C=C1I | inconclusive: 2.82 µM [inhibitor, full curve, poor fit] | 
COc1cc(-c2oc3cc(O)cc(O)c3c(=O)c2O)ccc1O | inconclusive: 29.9 µM [inhibitor, partial curve] | 
C#CCN(C)C(C)Cc1ccccc1 (configuration not stated) | inactive | 
COc1ccc(OC)c(N2C(=O)NC(=O)/C(=C/c3ccc([N+](=O)[O-])s3)C2=O)c1 | active: 25.1 µM | 
NC(=O)c1ccc(N=Cc2c(O)n(Cc3ccco3)c(=O)[nH]c2=O)cc1 | active: 50.1 µM | 
COC(C)(C)CCCC(C)C/C=C/C(C)=C/C(=O)OC(C)C (configuration not stated) | inconclusive: 3.98 µM [inhibitor, partial curve, poor fit] | 
COc1cccc(C(=O)Nc2ccc(-c3cc(C(F)(F)F)nn3-c3ccccc3)cc2)c1 | inconclusive: 89.1 µM [inhibitor, partial curve, poor fit] | 
CCCCCCCCCCCCN=C(N)N | inactive | 
O=C(O)c1ccccc1-c1c2cc(Br)c(=O)cc-2oc2[c]([Hg])c(O)c(Br)cc12 | active: 4.23 µM and active: 15.8 µM | 
CCOC(=O)C1=C(N)Oc2c(c(=O)oc3ccccc23)C12C(=O)N(C)c1ccccc12 (configuration not stated) | inconclusive: 89.1 µM [inhibitor, partial curve, poor fit] | 
O=C(O)CSCC(=O)N(Cc1ccccc1)c1nc(-c2ccccc2)c(-c2ccccc2)s1 | inconclusive: 100 µM [inhibitor, single point] | 
CN1CCc2cc(O)c(O)cc2C1Cc1ccc(O)c(O)c1 (configuration not stated) | inconclusive: 33.6 µM [inhibitor, partial curve, poor fit] | 
CCc1ccccc1N1C(=O)/C(=C/c2ccc(N3CCN(C)CC3)o2)C(=O)NC1=S | active: 25.1 µM | 
c1cncc(CNC2CCCC2)c1 | inconclusive: 89.1 µM [inhibitor, partial curve, poor fit] | 
COc1ccc(N2C(=O)/C(=C/c3ccc(C)o3)C(=O)NC2=S)c(OC)c1 | active: 50.1 µM | 
Oc1ccc(C[C@H]2NCCc3cc(O)c(O)cc32)cc1O | inconclusive: 89.1 µM [inhibitor, single point] | 

Structure (SMILES) | Potency | activity, negative = inhibition
COc1ccc(/C=C2/Sc3ccc(C(=O)N4CCc5ccccc5C4)cc3NC2=O)cc1 | inconclusive: 89.1 µM [inhibitor, single point] | 
CCC(=NCC1CCCO1)c1c(O)n(Cc2ccccc2)c(=O)[nH]c1=O (configuration not stated) | inactive | 
CCCCC/C=C\C/C=C\C/C=C\C/C=C\CCCC(=O)NCc1ccc(O)c(OC)c1 | inconclusive: 39.8 µM [inhibitor, single point] | 
C=C[C@@H]1CN2CC[C@H]1C[C@H]2[C@H](O)c1ccnc2ccccc12 | inactive | 
CN(C)c1ccc(/C=C/c2cc[n+](C)c3ccccc23)cc1 | inconclusive: 79.4 µM [inhibitor, partial curve, poor fit] and inconclusive: 79.4 µM [inhibitor, partial curve] | 
CN1C(=O)C(=Cc2ccc(Sc3ccccc3)o2)C(=O)N(C)C1=S | inconclusive: 89.1 µM [inhibitor, single point] | 
C/C1=C\[C@@H](C)C/C=C/[C@H]2[C@@H]3O[C@]3(C)[C@@H](C)[C@H]3[C@H](Cc4c[nH]c5ccccc45)NC(=O)[C@]32C(=O)/C=C/C(=O)[C@@H]1O | inconclusive: 79.4 µM [inhibitor, partial curve, poor fit] | 
CC(C)c1ccc(N2C(=O)NC(=O)/C(=C\C=C\c3ccco3)C2=O)cc1 | active: 39.8 µM | 
CCOP(=S)(OCC)SCSc1ccc(Cl)cc1 | active: 15 µM | 
COc1cc2c(cc1OC)-c1c(OC)c(OC)c(C=O)c3c1[C@H](C2)N(C)CC3 | inconclusive: 2.24 µM [inhibitor, partial curve, poor fit] | 
Cn1cccc1/C=C1/C(=O)NC(=O)N(Cc2ccccc2)C1=O | active: 79.4 µM | 
COc1cccc2c1C(=O)c1c(O)c3c(c(O)c1C2=O)CC(O)(C(C)=NO)CC3OC1CC(N)C(O)C(C)O1 (configuration not stated) | inconclusive: 28.2 µM [inhibitor, partial curve, poor fit] | 
CC(C)(C)OC(=O)C(Br)CCBr (configuration not stated) | inactive | 
S=C1Nc2ccccc2Sc2ccccc21 | inconclusive: 89.1 µM [inhibitor, single point] | 
COc1cc2c(cc1OC)-c1c(O)c(OC)cc3c1[C@H](C2)N(C)CC3 | inconclusive: 10 µM [inhibitor, partial curve] | 
CCN1C[C@]2(COC(=O)c3ccccc3N3C(=O)C[C@H](C)C3=O)CC[C@H](OC)[C@@]34[C@@H]5C[C@H]6[C@H](OC)[C@H]5[C@](O)(C[C@@H]6OC)[C@@](O)([C@@H](OC)[C@@H]23)[C@@H]14 |  | inactive: -6.77% [at 19.4 µM]
Cc1c(Cl)cccc1N1C(=O)NC(=O)/C(=C\c2cc(C)n(-c3cccc(C(=O)O)c3C)c2C)C1=O | active: 79.4 µM | 
COc1ccc(C(=O)C2CCCN(Cc3ccon3)C2)c(OC)c1 (configuration not stated) | inconclusive: 89.1 µM [inhibitor, partial curve, poor fit] | 
COc1ccc(OCCn2c(NC(=O)c3ccc(OC)cc3)nc3ccccc32)cc1 | inconclusive: 100 µM [inhibitor, single point] | 
COc1c2c(c(CC=C(C)C)c3oc(=O)c(-c4ccc(O)cc4)c(O)c13)OC(C)(C)C=C2 | inconclusive: 44.7 µM [inhibitor, partial curve, poor fit] | 
